Reference: publication PMC4336329 (PLoS ONE, 2015)
The campaign covered roughly 310,000 compounds. About 2,200 (0.71%) showed an effect of 50% or more. The effect is printed as a negative number. The list shows a part of the results.

biological target: human ether-à-go-go-related gene (hERG) potassium channel (human, UniProt Q12809); assay: primary screen, population patch clamp on CHO cells stably expressing hERG
Sequence (Q12809 whole entry, looked up): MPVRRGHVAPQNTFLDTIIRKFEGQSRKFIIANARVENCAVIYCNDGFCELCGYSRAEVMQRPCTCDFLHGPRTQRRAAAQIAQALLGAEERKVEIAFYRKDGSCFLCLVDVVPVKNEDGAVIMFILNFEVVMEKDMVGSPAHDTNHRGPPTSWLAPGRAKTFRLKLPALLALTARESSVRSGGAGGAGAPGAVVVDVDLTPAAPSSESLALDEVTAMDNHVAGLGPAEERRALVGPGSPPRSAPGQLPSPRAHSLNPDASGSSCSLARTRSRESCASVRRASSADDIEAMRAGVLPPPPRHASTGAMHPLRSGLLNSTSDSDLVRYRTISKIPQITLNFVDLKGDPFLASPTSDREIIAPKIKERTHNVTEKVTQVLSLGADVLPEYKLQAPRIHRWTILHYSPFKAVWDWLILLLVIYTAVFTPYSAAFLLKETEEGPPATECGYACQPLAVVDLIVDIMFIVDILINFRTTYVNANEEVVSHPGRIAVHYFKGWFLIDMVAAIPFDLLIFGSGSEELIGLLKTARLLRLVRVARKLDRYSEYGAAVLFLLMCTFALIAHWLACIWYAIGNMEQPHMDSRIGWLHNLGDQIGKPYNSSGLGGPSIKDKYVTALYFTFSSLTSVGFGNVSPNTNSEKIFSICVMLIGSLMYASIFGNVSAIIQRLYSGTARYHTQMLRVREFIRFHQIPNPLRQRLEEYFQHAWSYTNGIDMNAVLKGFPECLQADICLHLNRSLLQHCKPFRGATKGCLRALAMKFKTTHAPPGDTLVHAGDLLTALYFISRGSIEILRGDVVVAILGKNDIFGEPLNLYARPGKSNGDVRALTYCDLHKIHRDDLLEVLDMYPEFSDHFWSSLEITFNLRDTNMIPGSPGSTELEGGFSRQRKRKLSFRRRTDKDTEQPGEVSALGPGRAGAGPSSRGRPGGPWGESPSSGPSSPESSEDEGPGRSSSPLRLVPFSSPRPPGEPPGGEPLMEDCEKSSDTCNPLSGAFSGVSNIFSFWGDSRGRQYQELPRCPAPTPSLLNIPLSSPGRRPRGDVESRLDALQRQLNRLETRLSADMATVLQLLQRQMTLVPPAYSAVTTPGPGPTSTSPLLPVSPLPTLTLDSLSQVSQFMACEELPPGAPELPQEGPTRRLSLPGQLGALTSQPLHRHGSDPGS

SMILES | hERG current change (%, negative = inhibition) at 1uM [%]
COc1ccc2c(c1)[nH]c1c(=O)n(CCCN3CCOCC3)cnc12 | 8.51
Cc1cc(C(=O)Nn2c(-c3ccc(Br)cc3)nc3ccccc3c2=O)ccc1[N+](=O)[O-] | 11.9
COc1cccc(/C=C2\Sc3ccc(C(=O)NCC4CCCO4)cc3N(C)C2=O)c1 (stereo not shown) | 6.63
COc1cc(C(=O)NCC(c2ccco2)N(C)C)cc(OC)c1OC (stereo not shown) | 3.1
O=C(CSc1nc2ccccc2s1)Nn1cnnc1 | 4.59
COC(=O)c1ccccc1NC(=O)c1cc[n+]([O-])cc1 | 5.25
COCCNS(=O)(=O)c1ccc(-c2ccc(C)cc2)cc1 | 2.91
O=[N+]([O-])c1ccc(-c2nc(-c3ccncc3)no2)cc1 | 1.86
CC(=O)Nc1ccc(NC(=O)[C@@H]2CCCC[C@@H]2C(=O)O)cc1 | 10.3
CCCCCC(=O)Nc1ccc2ccccc2c1 | 9.07
CCOc1cc(-c2nc(C)c(C(C)=O)n2O)ccc1OCC(=O)Nc1ccccc1 | -2.12
Cc1ccccc1-c1noc(-c2ccc(O)cc2)n1 | 8.09
COc1ccc(CN(C)CC(=O)Nc2ccccc2C(F)(F)F)c(OC)c1.O=C(O)C(=O)O | 4.33
O=C(Oc1ccc([N+](=O)[O-])cc1)c1cncc(Br)c1 | 2.34
CC(C)(O)C#Cc1ccc(C(=O)N2CCCC(CCC(=O)NCc3ccccc3F)C2)cc1 (stereo not shown) | 6.38
CCOC(=O)CNC1CC(=O)N(c2cccc(Cl)c2)C1=O (stereo not shown) | 3.44
CCOC(=O)CNC(=O)Cn1cnc2c(oc3ccccc32)c1=O | 0.131
COc1cc(C(=O)NNC(=O)c2ccc(F)cc2)ccc1OCC(=O)N1CCOCC1 | 10.3
COc1cccc(-c2nnc(NC(=O)c3ccc(Cl)s3)o2)c1 | 7.08
CCC1=Nc2cc(C(=O)NCc3ccco3)ccc2Sc2ccccc21 | 6.59
CCc1cccc(NC(=O)CCS(=O)(=O)c2ccc3c(c2)NC(=O)CO3)c1 | -0.436
NC(=O)C1CCN(C(=O)c2ccccc2CCc2ccccc2)CC1 | 13.6
COc1ccc(N2CCN(C(=O)CCN3C(=O)C4C5C=CC(C5)C4C3=O)CC2)cc1 (stereo not shown) | 8.87

SMILES | hERG current change (%, negative = inhibition) at 1uM [%]
O=C(O)COCC(=O)NCc1csc2ccc(Cl)cc12 | 14
COc1ccc(CNCc2ccncc2)c(OC)c1.Cl | 7.51
COc1ccc(/C=N/NC(=O)c2cccnc2)cc1CN1CCCc2ccccc21 | 7.64
Cn1c(=O)c2c(nc(NCc3ccco3)n2C/C=C/c2ccccc2)n(C)c1=O | 10.1
Nc1ccccc1C#Cc1ccccc1 | 14.3
Cc1cc(C)cc(N2C(=O)CC(Sc3ncn[nH]3)C2=O)c1 (stereo not shown) | 15.7
COc1ccc(C(c2c(C)n(C)n(-c3ccccc3)c2=O)c2c(C)n(C)n(-c3ccccc3)c2=O)cc1OC | 13.3
O=C(O)CCCNC(=O)/C=C/c1ccco1 | 17.8
Cc1cc(NS(=O)(=O)c2cccc([N+](=O)[O-])c2)no1 | 19.1
Cc1cc(C)c(Cn2cnc3ccccc32)c(C)c1 | 4.3
Cc1cc(N2CCN(C)CC2)nc2ccc(NC(=O)c3ccc(Br)o3)cc12 | -39.1
Cn1c(CNC(=O)CNC(=O)c2cccc(Cl)c2)cc(=O)n(C)c1=O | 16.9
Cc1c(OCC(=O)NCCCN2CCOCC2)ccc2c3c(c(=O)oc12)CCCC3 | 9.41
Cc1ccc(NC(=O)COC(=O)c2ccccc2Cl)cc1S(=O)(=O)N(C)C | -1.16
CCOC(=O)c1sc2ncn(CC(=O)NCC3CCCO3)c(=O)c2c1C (stereo not shown) | 5.17
Cc1ccc(S(=O)(=O)N(C)CC(=O)NCCc2c[nH]c3ccccc23)cc1 | 5.49
COc1ccccc1CNC(=O)CN1CCN(Cc2ccc(Cl)cc2)C1=O | 2.97
COc1ccccc1/C=N/OCc1cc(C(C)=O)ccc1OC | 15.1
CC[n+]1c(S(=O)(=O)[O-])ccc2ccc(C)cc21 | 12.9
COc1ccc(NS(=O)(=O)c2cc(N/C(=N\S(=O)(=O)c3ccccc3)c3ccc(F)cc3)ccc2Cl)cc1 | 0.862
CCn1c(C(O)c2cc(OC)ccc2OC)nc2ccccc21 (stereo not shown) | 12.6
CCOC(=O)c1ccc(NC(=O)CN2C(=O)NC3(CCC(C)CC3)C2=O)cc1 (stereo not shown) | 11.4
COc1ccc(CC(=O)OCC(=O)NC(=O)NC(C)C)cc1 | 6.13

SMILES | hERG current change (%, negative = inhibition) at 1uM [%]
CC(OC(=O)Cc1c[nH]c2ccccc12)C(=O)N(C)c1ccccc1 (stereo not shown) | 0.419
CCN(CC(=O)Nc1ccc(NC(C)=O)cc1)C(=O)c1ccc2ccccc2c1 | 17.8
CCCn1c(=O)c(C#N)cn(C2CC2)c1=O | 9.74
COc1ccc(-c2cc(C(=O)NNC(=O)c3csc(N4CCOCC4)n3)c3ccccc3n2)cc1OC | 15.1
Oc1cccc(/C=N/NC(=S)NCCN2CCOCC2)c1O | 15.3
CCC(C)N1C(=S)SC(C)(C)C1N(O)C(=O)NC1CCCCC1 (stereo not shown) | 14.3
O=C(NC1CCCC1)c1cccc(Cn2cc([N+](=O)[O-])cn2)c1 | -9.75
O=C(O)CCN1c2cccc3cccc(c23)S1(=O)=O | 7.78
Cc1ccccc1NCC(=O)N/N=C\C=C\c1cccc([N+](=O)[O-])c1 | -15.1
CCOC(=O)c1ncn2c1CN(C)C(=O)c1cc(F)ccc1-2 | 16.6
CCOC(=O)c1ccc(NC(=O)CSCc2ccco2)cc1 | 12.4
COC(=O)c1c(C)nn(-c2ccccc2)c1-n1cccc1 | 4.55
CN(C)C(=O)CNC(=O)C1CCCCC1 | 8.76
COc1ccc(Cc2nc(C(=O)Nc3ccccc3)cs2)cc1 | 10.8
CCCCn1c(=O)c(CCC(=O)OCC(=O)Nc2ccc(F)c(Cl)c2)nc2ccccc21 | 14.7
CCCCCC(=O)NC(=S)Nc1ccc(Cl)cn1 | 3.28
Cc1ccc(-c2cn(-c3ccccc3F)c(=S)[nH]2)cc1 | 15.9
CCOc1ccc(C(=O)CCC(=O)NC(C)C(=O)OC)cc1 (stereo not shown) | 2.1
CCOC(=O)Nc1ccc2c(c1)N(CCCN(C)C)c1ccccc1CC2.Cl | -1.92
O=C(CCC(=O)OCC(F)(F)C(F)F)Nc1ccc(F)cc1F | 11.6
CCOC(=O)c1ccc(NC(=O)c2cccc3c2C(=O)N(CC2CCCO2)C3)cc1 (stereo not shown) | 9.99
COC(=O)C1=C(c2cccc(OCc3ccccc3)c2)C[C@@H]2CC[C@H]1N2C(=O)NCCCc1ccccc1 | 7.11
COC(=O)c1ccc(NC(=O)C2CCN(S(C)(=O)=O)CC2)cc1 | 9.85

SMILES | hERG current change (%, negative = inhibition) at 1uM [%]
N#C/C(=C\c1cccc(O)c1)C(=O)N1CCCCC1 | 15.1
O=C(CSc1nc2ccccc2c(=O)[nH]1)N1CCCCCC1 | 12.6
CC1CCN(Cc2c(C(=O)N3CCc4ccccc4C3)nc3ccc(Cl)cn23)CC1 | 9.3
O=C(CNS(=O)(=O)c1cccs1)NCc1ccc(F)cc1 | 0.971
CSCCC(NC(=O)c1ccco1)c1nc2ccccc2[nH]1 (stereo not shown) | 13.4
Cc1ccc(-c2csc(NC(=O)C3=COCCO3)n2)cc1 | 8.06
CCCCCn1nnc2c(=O)oc3ccccc3c21 | 5.45
CSC1=NCCN1C(=O)Cc1cccs1 | 5.49
O=C(Cc1cccc2ccccc12)Nc1ccc(-c2cc3ccccc3oc2=O)cc1 | 5.11
O=S(=O)(c1ccc(OCC(O)CN2CCCC2)cc1)N1CCOCC1 (stereo not shown) | 9.44
Cc1ccc(C(=O)n2cnc3ccccc32)cc1C | 10.5
COc1ccc(NC(=O)c2cccc(S(=O)(=O)N3CCCCC3)c2)c(OC)c1 | 7.46
N#Cc1ccc(S(=O)(=O)NC2CC2)cc1 | 18.1
OC(CNCCc1ccc(Cl)cc1)COc1cc(Cl)ccc1Cl (stereo not shown) | 2.52
Cc1cc(=O)[nH]c(SCCOc2ccc(OC(C)C)cc2)n1 | 13.8
O=C(CN1CCCCC1)Nc1ccccc1NC(=O)CN1CCCCC1 | 12
ONC(=Nc1cccc(C(F)(F)F)c1)c1cccnc1 | 8.06
O=C(NC(c1ccccc1)c1ccccc1)C1CCCN(S(=O)(=O)c2cnc[nH]2)C1 (stereo not shown) | 16.4
C/C(=N/NS(=O)(=O)c1cccc([N+](=O)[O-])c1)c1c[nH]c2ccccc12 | 7.92
O=C1c2cccc3c(Nc4ccccc4Cl)c([N+](=O)[O-])cc(c23)C(=O)N1CCO | 11
Cc1noc(C)c1C(=O)Nc1cccc(S(=O)(=O)N2CCCCC2)c1 | 4.49
CC(C)COc1ccc(C(=O)N(Cc2ccco2)C2CCS(=O)(=O)C2)cc1 (stereo not shown) | 6.87
